Results are given in words; binding and its absence hold for the method and conditions named. In cells and extracts the contact can be indirect. Some binding calls cover weakened binding; strength is not graded here.
Columns and labels:
[1] = molecular target: MyoD (mouse (endogenous in C2C12)) (UniProt P10085); assay: co-IP; anti-MyoD immunoprecipitates from extracts of C2C12 cells grown in GM, or in DM with SB203580 (5 uM); western blot for KMT1A; control IgG
[2] = molecular target: MyoD (mouse (endogenous in C2C12)) (UniProt P10085); assay: condition: only cells induced to differentiate in DM without SB (p38α active); co-IP; anti-MyoD immunoprecipitates from extracts of C2C12 cells induced to differentiate in DM without SB; western blot for KMT1A

By UniProt entry, the sequences of proteins in these tests, tags left out.
UniProt P10085: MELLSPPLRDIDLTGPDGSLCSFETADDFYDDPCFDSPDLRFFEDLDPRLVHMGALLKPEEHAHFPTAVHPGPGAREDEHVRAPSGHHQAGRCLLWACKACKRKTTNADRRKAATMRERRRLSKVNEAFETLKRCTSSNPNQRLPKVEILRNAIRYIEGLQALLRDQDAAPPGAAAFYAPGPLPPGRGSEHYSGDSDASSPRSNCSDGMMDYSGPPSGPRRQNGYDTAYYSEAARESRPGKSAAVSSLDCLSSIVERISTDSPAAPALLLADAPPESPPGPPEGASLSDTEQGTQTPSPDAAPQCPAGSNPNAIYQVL

- binding [1]: binds
- binding [2]: no binding
B1: KMT1A (lysine methyltransferase 1A) (protein, UniProt O54864 1-412)
chain: MAENLKGCSVCCKSSWNQLQDLCRLAKLSCPALGVSKKNLYDFEVEYLCDYKKIREQEYYLVKWRGYPDSENTWEPRQNLKCIRVLKQFHKDLERELVRRHRRSKPPRHLDPNLANYLVQKAKQRRALQRWEQELNAKRSHLGRITVENEVDLDGPPRSFVYINEYRVGEGITLNQVAVGCECQDCLLAPTGGCCPGASLHKFAYNDQGQVRLKAGQPIYECNSRCCCGYDCPNRVVQKGIRYDLCIFRTNDGRGWGVRTLEKIRKNSFVMEYVGEIITSEEAERRGQIYDRQGATYLFDLDYVEDVYTVDAAYYGNISHFVNHSCDPNLQVYNVFIDNLDERLPRIAFFATRTIWAGEELTFDYNMQVDPVDMESTRMDSNFGLAGLPGSPKKRVRIECKCGTTACRKYLF

Reference: article PMC4993004
